Experimental data taken from article PMC9911399, “Two distinct binding modes provide the RNA-binding protein RbFox with extraordinary sequence specificity”.
Changes are numbered by the printed parent chain; changes in the protein carry UniProt numbers. The list shows a part of the results.

T1: RBFOX1 RRM RbFoxmut (Fox-RRM*) (Homo sapiens, UniProt Q9NWB1 109-208, R118D;E147R;N151S;E152T)
T1 sequence: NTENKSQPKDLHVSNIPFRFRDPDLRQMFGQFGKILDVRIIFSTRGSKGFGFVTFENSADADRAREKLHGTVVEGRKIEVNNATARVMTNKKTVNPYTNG

B1: CCCAGGG (DNA:RNA)
RNA: GGGAGACCGGAAUUCAGAUUGUCCCCCAGGGUUAAAUCCCGUCGUAGCCACCA
DNA 1: CAATCTGAATTCCGGTCTCCC
DNA 2: TGGTGGCTACGACGGGATT
B2: UCACUGA (DNA:RNA)
RNA: B1 RNA with C25U, C27A, A28C, G29U, G31A
DNA 1: CAATCTGAATTCCGGTCTCCC
DNA 2: TGGTGGCTACGACGGGATT
B3: CUCCCAA (DNA:RNA)
RNA: B1 RNA with C26U, A28C, G29C, G30A, G31A
DNA 1: CAATCTGAATTCCGGTCTCCC
DNA 2: TGGTGGCTACGACGGGATT
B4: GGAAAAU (DNA:RNA)
RNA: B1 RNA with C25G, C26G, C27A, G29A, G30A, G31U
DNA 1: CAATCTGAATTCCGGTCTCCC
DNA 2: TGGTGGCTACGACGGGATT
B5: AGCAUAA (DNA:RNA)
RNA: B1 RNA with C25A, C26G, G29U, G30A, G31A
DNA 1: CAATCTGAATTCCGGTCTCCC
DNA 2: TGGTGGCTACGACGGGATT
B6: GAUCGGA (DNA:RNA)
RNA: B1 RNA with C25G, C26A, C27U, A28C, G31A
DNA 1: CAATCTGAATTCCGGTCTCCC
DNA 2: TGGTGGCTACGACGGGATT
B7: UUUCAAC (DNA:RNA)
RNA: GGGAGACCGGAAUUCAGAUUGUCCUUUCAACUUAAAUCCCGUCGUAGCCACCA
DNA 1: CAATCTGAATTCCGGTCTCCC
DNA 2: TGGTGGCTACGACGGGATT
B8: AGAUUGU (DNA:RNA)
RNA: B1 RNA with C25A, C26G, C27A, A28U, G29U, G31U
DNA 1: CAATCTGAATTCCGGTCTCCC
DNA 2: TGGTGGCTACGACGGGATT
B9: CUACCGU (DNA:RNA)
RNA: B1 RNA with C26U, C27A, A28C, G29C, G31U
DNA 1: CAATCTGAATTCCGGTCTCCC
DNA 2: TGGTGGCTACGACGGGATT
B10: AAUGUAA (DNA:RNA)
RNA: B7 RNA with U25A, U26A, C28G, A29U, C31A
DNA 1: CAATCTGAATTCCGGTCTCCC
DNA 2: TGGTGGCTACGACGGGATT
B11: CAGAAAA (DNA:RNA)
RNA: B1 RNA with C26A, C27G, G29A, G30A, G31A
DNA 1: CAATCTGAATTCCGGTCTCCC
DNA 2: TGGTGGCTACGACGGGATT
B12: GUGAUUG (DNA:RNA)
RNA: B1 RNA with C25G, C26U, C27G, G29U, G30U
DNA 1: CAATCTGAATTCCGGTCTCCC
DNA 2: TGGTGGCTACGACGGGATT
B13: ACAUUCU (DNA:RNA)
RNA: B1 RNA with C25A, C27A, A28U, G29U, G30C, G31U
DNA 1: CAATCTGAATTCCGGTCTCCC
DNA 2: TGGTGGCTACGACGGGATT
B14: CUUGCAA (DNA:RNA)
RNA: B7 RNA with U25C, C28G, A29C, C31A
DNA 1: CAATCTGAATTCCGGTCTCCC
DNA 2: TGGTGGCTACGACGGGATT
B15: GUAUAUA (DNA:RNA)
RNA: B7 RNA with U25G, U27A, C28U, A30U, C31A
DNA 1: CAATCTGAATTCCGGTCTCCC
DNA 2: TGGTGGCTACGACGGGATT
B16: GUAUUAG (DNA:RNA)
RNA: B7 RNA with U25G, U27A, C28U, A29U, C31G
DNA 1: CAATCTGAATTCCGGTCTCCC
DNA 2: TGGTGGCTACGACGGGATT
B17: UAACAAU (DNA:RNA)
RNA: B7 RNA with U26A, U27A, C31U
DNA 1: CAATCTGAATTCCGGTCTCCC
DNA 2: TGGTGGCTACGACGGGATT
B18: UGAUCUC (DNA:RNA)
RNA: B7 RNA with U26G, U27A, C28U, A29C, A30U
DNA 1: CAATCTGAATTCCGGTCTCCC
DNA 2: TGGTGGCTACGACGGGATT
B19: UUCUAGC (DNA:RNA)
RNA: B7 RNA with U27C, C28U, A30G
DNA 1: CAATCTGAATTCCGGTCTCCC
DNA 2: TGGTGGCTACGACGGGATT
B20: CGUGUCU (DNA:RNA)
RNA: B1 RNA with C26G, C27U, A28G, G29U, G30C, G31U
DNA 1: CAATCTGAATTCCGGTCTCCC
DNA 2: TGGTGGCTACGACGGGATT
B21: CCCCUUA (DNA:RNA)
RNA: B1 RNA with A28C, G29U, G30U, G31A
DNA 1: CAATCTGAATTCCGGTCTCCC
DNA 2: TGGTGGCTACGACGGGATT
B22: AGGCCCG (DNA:RNA)
RNA: B1 RNA with C25A, C26G, C27G, A28C, G29C, G30C
DNA 1: CAATCTGAATTCCGGTCTCCC
DNA 2: TGGTGGCTACGACGGGATT
B23: GAUGCCU (DNA:RNA)
RNA: B7 RNA with U25G, U26A, C28G, A29C, A30C, C31U
DNA 1: CAATCTGAATTCCGGTCTCCC
DNA 2: TGGTGGCTACGACGGGATT
B24: UGGACGA (DNA:RNA)
RNA: B1 RNA with C25U, C26G, C27G, G29C, G31A
DNA 1: CAATCTGAATTCCGGTCTCCC
DNA 2: TGGTGGCTACGACGGGATT
B25: AAUCUUA (DNA:RNA)
RNA: B7 RNA with U25A, U26A, A29U, A30U, C31A
DNA 1: CAATCTGAATTCCGGTCTCCC
DNA 2: TGGTGGCTACGACGGGATT
B26: AGAGAUA (DNA:RNA)
RNA: B7 RNA with U25A, U26G, U27A, C28G, A30U, C31A
DNA 1: CAATCTGAATTCCGGTCTCCC
DNA 2: TGGTGGCTACGACGGGATT
B27: ACAUUAU (DNA:RNA)
RNA: B1 RNA with C25A, C27A, A28U, G29U, G30A, G31U
DNA 1: CAATCTGAATTCCGGTCTCCC
DNA 2: TGGTGGCTACGACGGGATT
B28: UAAGGUU (DNA:RNA)
RNA: B1 RNA with C25U, C26A, C27A, A28G, G30U, G31U
DNA 1: CAATCTGAATTCCGGTCTCCC
DNA 2: TGGTGGCTACGACGGGATT
B29: AUCGGCG (DNA:RNA)
RNA: B1 RNA with C25A, C26U, A28G, G30C
DNA 1: CAATCTGAATTCCGGTCTCCC
DNA 2: TGGTGGCTACGACGGGATT
B30: UUGCUAU (DNA:RNA)
RNA: B7 RNA with U27G, A29U, C31U
DNA 1: CAATCTGAATTCCGGTCTCCC
DNA 2: TGGTGGCTACGACGGGATT
B31: GGAGUCA (DNA:RNA)
RNA: GGGAGACCGGAAUUCAGAUUGUCCGGAGUCAUUAAAUCCCGUCGUAGCCACCA
DNA 1: CAATCTGAATTCCGGTCTCCC
DNA 2: TGGTGGCTACGACGGGATT

The binders below were run against T1, RBFOX1 RRM RbFoxmut (Fox-RRM*) (assay: EMSA; HiTS-Eq, 1 nM pool, 10 min; buffer printed only for the single-RNA assays: 10 mM Tris pH 7.5, 150 mM NaCl, 3.4 mM EDTA, 0.001% NP-40, 30 C). Settings: tags: His6 N-terminal (pET28a); label: 5' 32P.
In short: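 These values rest on relative association constants, computed from read-count changes of each RNA species versus the control reaction and normalised to the cognate motif. Reads came from free RNA recovered by 8% native PAGE after purified RbFox RRM (wild type or mutant) at increasing concentrations was equilibrated for 10 min in 50 µL with 1 nM of a 5′-radiolabelled pool with 7 randomized nucleotides and DNA-annealed flanks.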

Row | Binder | binding signal
1 | B1 | 0.0633 KA relative to UGCAUGU
2 | B2 | 0.092 KA relative to UGCAUGU
3 | B3 | 0.0806 KA relative to UGCAUGU
4 | B4 | 0.0664 KA relative to UGCAUGU
5 | B5 | 0.0973 KA relative to UGCAUGU
6 | B6 | 0.0751 KA relative to UGCAUGU
7 | B7 | 0.077 KA relative to UGCAUGU
8 | B8 | 0.222 KA relative to UGCAUGU
9 | B9 | 0.1 KA relative to UGCAUGU
10 | B10 | 0.112 KA relative to UGCAUGU
11 | B11 | 0.0971 KA relative to UGCAUGU
12 | B12 | 0.454 KA relative to UGCAUGU
13 | B13 | 0.0626 KA relative to UGCAUGU
14 | B14 | 0.0832 KA relative to UGCAUGU
15 | B15 | 0.165 KA relative to UGCAUGU
16 | B16 | 0.142 KA relative to UGCAUGU

Row | Binder | binding signal
17 | B17 | 0.0335 KA relative to UGCAUGU
18 | B18 | 0.0775 KA relative to UGCAUGU
19 | B19 | 0.103 KA relative to UGCAUGU
20 | B20 | 0.119 KA relative to UGCAUGU
21 | B21 | 0.0931 KA relative to UGCAUGU
22 | B22 | 0.115 KA relative to UGCAUGU
23 | B23 | 0.0844 KA relative to UGCAUGU
24 | B24 | 0.131 KA relative to UGCAUGU
25 | B25 | 0.0831 KA relative to UGCAUGU
26 | B26 | 0.15 KA relative to UGCAUGU
27 | B27 | 0.127 KA relative to UGCAUGU
28 | B28 | 0.0796 KA relative to UGCAUGU
29 | B29 | 0.169 KA relative to UGCAUGU
30 | B30 | 0.116 KA relative to UGCAUGU
31 | B31 | 0.0995 KA relative to UGCAUGU
